Reference: PubChem BioAssay AID504332 (National Center for Advancing Translational Sciences (NCATS), 2011)
Where “and” joins values, the source holds several entries; their conditions need not be identical. Identical values can stand only once. The whole screen tested about 350,000 compounds, of which about 31,000 (8.9%) were called active. The shares of active, inactive and inconclusive entries below differ from those in the screen. Calls come from the whole dose curve; as a rule, active = well fitted inhibition curve with a large enough effect; inconclusive = small, poorly fitted or top-dose-only effect; inactive = no such curve, though single readings can be large or run the other way. A potency beside an inconclusive call is a rough fit, not a confirmed value.

biological target: Histone-lysine N-methyltransferase EHMT2 (Homo sapiens) (UniProt Q96KQ7); test: qHTS Assay for Inhibitors of Histone Lysine Methyltransferase G9a; settings: G9a H3K9 monomethylation, AlphaScreen, 2 h; activity, negative = inhibition: at 59 µM (top of the series) unless noted; note: nearly all actives have a fitted effect of over 75% in size
Sequence of UniProt Q96KQ7 (Q96KQ7 whole entry, looked up): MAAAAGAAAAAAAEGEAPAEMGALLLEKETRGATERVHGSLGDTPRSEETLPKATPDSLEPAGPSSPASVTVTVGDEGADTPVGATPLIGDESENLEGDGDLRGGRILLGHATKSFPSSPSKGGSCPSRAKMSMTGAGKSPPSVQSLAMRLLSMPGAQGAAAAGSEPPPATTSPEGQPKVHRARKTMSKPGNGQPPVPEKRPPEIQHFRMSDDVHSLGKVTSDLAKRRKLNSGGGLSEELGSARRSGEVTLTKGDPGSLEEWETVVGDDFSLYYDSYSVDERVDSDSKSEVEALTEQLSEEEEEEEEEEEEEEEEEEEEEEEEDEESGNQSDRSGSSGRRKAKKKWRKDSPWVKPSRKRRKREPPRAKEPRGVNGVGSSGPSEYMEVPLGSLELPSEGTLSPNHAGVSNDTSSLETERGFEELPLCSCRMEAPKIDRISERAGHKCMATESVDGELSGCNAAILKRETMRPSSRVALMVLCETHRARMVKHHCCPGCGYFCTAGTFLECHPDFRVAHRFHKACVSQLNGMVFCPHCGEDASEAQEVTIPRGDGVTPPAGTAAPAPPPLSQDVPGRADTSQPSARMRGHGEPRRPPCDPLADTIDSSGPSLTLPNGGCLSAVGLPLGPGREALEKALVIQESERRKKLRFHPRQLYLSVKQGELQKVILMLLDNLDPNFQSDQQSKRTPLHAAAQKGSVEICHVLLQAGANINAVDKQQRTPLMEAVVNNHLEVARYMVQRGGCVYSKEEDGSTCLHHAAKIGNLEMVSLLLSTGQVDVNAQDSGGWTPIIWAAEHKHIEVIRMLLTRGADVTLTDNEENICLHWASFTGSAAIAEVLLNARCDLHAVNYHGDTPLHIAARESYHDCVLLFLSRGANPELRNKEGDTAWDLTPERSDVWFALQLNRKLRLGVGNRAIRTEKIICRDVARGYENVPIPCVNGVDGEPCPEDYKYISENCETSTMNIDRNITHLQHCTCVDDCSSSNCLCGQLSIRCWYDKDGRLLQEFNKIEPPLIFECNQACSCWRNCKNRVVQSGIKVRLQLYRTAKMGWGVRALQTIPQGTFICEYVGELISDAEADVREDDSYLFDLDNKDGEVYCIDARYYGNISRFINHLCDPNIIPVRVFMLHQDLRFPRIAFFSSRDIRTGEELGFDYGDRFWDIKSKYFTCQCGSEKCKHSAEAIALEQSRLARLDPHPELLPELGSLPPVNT
In short: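 AlphaScreen read-out: biotin-H3K9 peptide (500 nM) methylation by 20 nM enzyme with 20 uM SAM, 2 h at room temperature after 15 min compound preincubation; anti-monomethyl H3K9 antibody plus donor/acceptor beads, 10 min dark.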
% is set by controls: 0 for no effect and ±100 for the full control effect; potency is the fitted concentration of half-maximal effect; tags give direction and shape of the fitted curve.

Row | SMILES | Potency | activity, negative = inhibition
1 | N#CCCN(Cc1cccnc1)C(=S)NC(=O)c1ccc(S(=O)(=O)N2CCCC2)cc1 | active: 28.2 µM | –
2 | COc1ccc(CNc2ccc(C)c(C)c2)c(OC)c1OC | active: 35.5 µM | –
3 | Cc1sc2nc(CSCC(=O)Nc3ccccc3C#N)[nH]c(=O)c2c1C | inconclusive: 79.4 µM [inhibitor, single point] | –
4 | Fc1ccccc1COc1ccccc1/C=N/Nc1nc(N2CCCC2)nc(N2CCCC2)n1 | inactive | –
5 | COc1ccc(C)cc1S(=O)(=O)NCC(c1ccc2c(c1)OCO2)N1CCN(C)CC1 (centres undefined) | active: 11.2 µM | –
6 | Cc1cc(C)c(NC(=O)COC(=O)C2CCN(c3ccc(C(F)(F)F)cn3)CC2)c(Cl)c1 | inconclusive: 35.5 µM [inhibitor, partial curve, poor fit] | –
7 | CN1CCN(S(=O)(=O)c2cccc(C(=O)Nc3cc(C(F)(F)F)ccc3N3CCCC3)c2)CC1 | active: 50.1 µM | –
8 | O=S(=O)(NCc1cccnc1)c1cccs1 | inconclusive: 25.1 µM [inhibitor, single point] | –
9 | O=C(Nc1nc2nc(-c3ccccc3)cc(=O)n2[nH]1)c1ccc(F)cc1 | – | inactive: 15.4% [at 12.7 µM]
10 | CCc1ccccc1N1CC(c2nc3ccccc3n2Cc2cccc(C)c2)CC1=O (centres undefined) | active: 1 µM | –
11 | CC(=O)c1ccc(N2CCN(CC(O)COCc3ccco3)CC2)cc1 (centres undefined) | inconclusive: 7.08 µM [inhibitor, full curve, poor fit] | –
12 | COc1cc(C(=S)N2CCOCC2)ccc1OS(=O)(=O)c1ccccc1[N+](=O)[O-] | active: 12.6 µM | –
13 | COCCCNCCCOc1ccc(Cl)cc1C(C)(C)C | inconclusive: 20 µM [inhibitor, partial curve, poor fit] | –
14 | COc1cccc(C2c3[nH]c4ccccc4c3C[C@H]3C(=O)N(C4CCN(Cc5ccccc5)CC4)CC(=O)N23)c1 (some centres undefined) | – | inactive: 5.05% [at 12.7 µM]
15 | CCn1cc(C(=O)NC(=S)Nc2sc3c(c2C(=O)OC)CCCCCC3)cn1 | inconclusive: 56.2 µM [inhibitor, partial curve, poor fit] | –
16 | Cc1ccc2c(c1)C(=O)CCN2 | inconclusive: 25.1 µM [inhibitor, single point] | –
17 | Cc1ccc2cc(NC(=O)c3cccc(F)c3)ccc2n1 | inconclusive: 31.6 µM [inhibitor, single point] | –
18 | CCNC(=S)N1CCN(c2ccccn2)CC1 | inactive | –
19 | Cn1c(C(=O)NCc2ccc3c(c2)OCO3)cc2sccc21 | inconclusive: 28.2 µM [inhibitor, single point] | –
20 | O=C(CSc1ncnc2sc3c(c12)CCCC3)c1ccco1 | inactive | –
21 | Cc1ccc(-c2nn(-c3ccccc3)cc2/C=N/NC(=O)c2ccncc2)o1 | inconclusive: 89.1 µM [inhibitor, partial curve, poor fit] | –
22 | CC(=O)Oc1ccc2nc(/C=C/c3ccccc3)oc(=O)c2c1 | – | inactive: 2.47% [at 0.501 µM]
23 | COc1nccnc1NS(=O)(=O)c1ccc(NC(=S)NC(=O)c2ccccc2)cc1 | active: 39.8 µM | –

Row | SMILES | Potency | activity, negative = inhibition
24 | CCOC(=O)c1c(C)[nH]c(C)c1C(=O)COc1ccc(NC(=O)c2ccco2)cc1 | inconclusive: 70.8 µM [inhibitor, single point] | –
25 | CC1CCc2nn(CC(=O)Nc3cccc(C(F)(F)F)c3)c(=O)cc2C1 (centres undefined) | inactive | –
26 | COc1cc(OC)c(NS(=O)(=O)c2cc(C(=O)OC(C)C(=O)NC3CC3)c(Cl)cc2Cl)cc1Cl (centres undefined) | inconclusive: 39.8 µM [inhibitor, single point] | –
27 | C=C(C)C1CC=C(C)/C(=N\NC(=O)CNc2cccc3ccccc23)C1 (centres undefined) | active: 10 µM | –
28 | CC(C)c1ccc(C(=O)Nc2cccc3cccnc23)cc1 | inactive | –
29 | CC(=O)NC(Cc1ccc(C)cc1)C(=O)NC1CCN(C(=O)c2ccc([N+](=O)[O-])cc2)CC1 (centres undefined) | inactive | –
30 | COc1ccc(CN(C(=O)Nc2ccc(C)c(F)c2)C2CCN(C(C)=O)CC2)cc1 | inactive | –
31 | COc1ccc(C)cc1NC(=O)C(c1ccccc1)N1CCNC(=O)C1 (centres undefined) | active: 50.1 µM | –
32 | COCCOC(=O)C(C#N)c1nc2ccccc2nc1N1CCN(Cc2ccccc2)CC1 (centres undefined) | inconclusive: 1.12 µM [inhibitor, full curve, poor fit] | –
33 | CCCCN1CCN=C1Nc1ccccc1 | inconclusive: 89.1 µM [inhibitor, single point] | –
34 | CC1CCN(S(=O)(=O)c2cc(C(=O)NCc3ccc(F)cc3)n(C)c2)CC1 | inactive | –
35 | COc1cccc(COC(=O)c2ccc(-c3nnn(Cc4ccccc4)n3)cc2)c1 | inconclusive: 39.8 µM [inhibitor, partial curve, poor fit] | –
36 | Brc1cccc(-c2nnc3sc(CNC4CCCC4)cn23)c1 | inconclusive: 70.8 µM [inhibitor, single point] | –
37 | CC(c1ccccc1)N1CCn2c(nc3cc(NC(=O)c4cccs4)ccc32)C1 (centres undefined) | inconclusive: 2.82 µM [inhibitor, partial curve, poor fit] | –
38 | Nc1nc(NCc2ccco2)nc(NC2CCCCC2)c1[N+](=O)[O-] | inactive | –
39 | Cc1c(NC(=S)N/N=C/c2cc([N+](=O)[O-])ccc2O)c(=O)n(-c2ccccc2)n1C | active: 56.2 µM | –
40 | O=C(c1ccccc1)N1CCN(c2ccc([N+](=O)[O-])c(NCc3ccco3)c2)CC1 | – | inactive: 44.5% [at 0.501 µM]
41 | Cc1ccc(NC(=O)CCS(=O)(=O)c2ccc3nc(C)sc3c2)cc1 | inactive | –
42 | Cc1cccc(C)c1-n1c(C)cc(/C=C2\NC(=O)NC2=O)c1C | inconclusive: 20 µM [inhibitor, single point] | –
43 | Nc1ccc(Sc2cc(Cl)nc(N)n2)cc1 | – | inconclusive: -113% [inhibitor]
44 | COc1ccc(-c2[nH]ncc2CN(C)Cc2cnccn2)c(OC)c1 | inconclusive: 50.1 µM [inhibitor, partial curve, poor fit] | –
45 | CSc1ccc(CCNC(=O)c2cc3n(n2)CCCN(Cc2ccc(C)cc2)C3=O)cc1 | inactive | –
46 | CN1C(=O)c2ccc(NC(=S)NC(=O)C(C)(C)C)cc2C1=O | active: 44.7 µM | –

Row | SMILES | Potency | activity, negative = inhibition
47 | CC(C)n1c(=S)[nH]c2c1c(=O)[nH]c(=O)n2C | inconclusive: 0.794 µM [inhibitor, full curve, poor fit] | –
48 | COC(=O)C(Cc1cnc(Cl)s1)(C(=O)OC)c1ccc([N+](=O)[O-])cc1 | inconclusive: 28.2 µM [inhibitor, partial curve, poor fit] | –
49 | Cc1ccc(CN(CC(=O)NCC2CCCO2)S(=O)(=O)c2ccc(C)cc2)cc1 (centres undefined) | inactive | –
50 | CC1(C)OC(=O)C(=Cc2ccc(-c3ccc(S(N)(=O)=O)cc3)o2)C(=O)O1 | active: 35.5 µM | –
51 | NCCc1nc(-c2ccccc2)cs1 | inactive | –
52 | O=C(Nc1ccc(C(F)(F)F)cc1)C1CC(=O)N(c2ccc3c(c2)OCCO3)C1 (centres undefined) | inconclusive: 89.1 µM [inhibitor, single point] | –
53 | CN(C)S(=O)(=O)c1cccc(C(=O)Nc2cc3c(cc2C(=O)O)OCCCO3)c1 | inactive | –
54 | CCOC(=O)C(C)(C)N(Cc1cccc(C)c1)S(=O)(=O)c1ccc(Cl)c([N+](=O)[O-])c1 | inconclusive: 31.6 µM [inhibitor, single point] | –
55 | C#CCn1cc(/C=N/NC(=O)COc2cccc3cccnc23)c2ccccc21 | active: 3.16 µM | –
56 | Cc1ccc(OCC(=O)N(Cc2ccccc2)C2CCS(=O)(=O)C2)c([N+](=O)[O-])n1 (centres undefined) | inconclusive: 79.4 µM [inhibitor, single point] | –
57 | COC(=O)c1ccc(Cn2nc(-c3ccc(C)c(C)c3)ccc2=O)cc1 | inconclusive: 0.891 µM [inhibitor, partial curve, poor fit] | –
58 | Cc1cc(NC(=S)N(Cc2ccc(Br)cc2)Cc2ccc(C(=O)O)cc2)ccc1Cl | inconclusive: 31.6 µM [inhibitor, partial curve, poor fit] | –
59 | Cc1cc(-c2ccc(N=Nc3c(S(=O)(=O)O)cc4cc(S(=O)(=O)O)cc(N)c4c3O)c(C)c2)ccc1N=Nc1c(S(=O)(=O)O)cc2cc(S(=O)(=O)O)cc(N)c2c1O | inconclusive: 251 nM [inhibitor, full curve, poor fit] and inconclusive: 1.41 µM [inhibitor, full curve, poor fit] | –
60 | CCn1cc2nc(SCC(=O)Nc3ccc(OC)c(OC)c3)n(Cc3ccc(OC)cc3)c(=O)c2n1 | inconclusive: 10 µM [inhibitor, partial curve, poor fit] | –
61 | Oc1ccc(Nc2nc(-c3ccccc3F)nc3ccccc23)cc1 | inconclusive: 89.1 µM [inhibitor, single point] | –
62 | COc1ccccc1-n1c(SCC(=O)NC(C)(C)C)nnc1-c1ccco1 | inconclusive: 28.2 µM [inhibitor, single point] | –
63 | NS(=O)(=O)c1ccc(Nc2ccccc2)c([N+](=O)[O-])c1 | inconclusive: 50.1 µM [inhibitor, partial curve] | –
64 | COc1cc(CN2CCN(Cc3ccco3)CC2)cc(OC)c1 | active: 8.91 µM | –
65 | c1ccc(OCCSc2nnnn2-c2ccccc2)cc1 | inactive | –
66 | COc1ccc(C2NC(=O)C(C#N)=C(S)N2c2ccc(C)cc2)cc1OC (centres undefined) | active: 44.7 µM | –
67 | COc1cc(C(=O)N2CCN(c3ccc([N+](=O)[O-])cc3)CC2)ccc1OCc1c(C)noc1C | inactive | –
68 | CC(=O)OCC[n+]1c(C)n(-c2ccccc2)c2ccc(Cl)cc21 | active: 50.1 µM | –
69 | N#Cc1c(NC(=O)/C=C/C(=O)O)sc2c1CCN(Cc1ccccc1)C2 | inconclusive: 44.7 µM [inhibitor, partial curve, poor fit] | –
